Experimental findings from the supplement of paper PMC11417369 are described below.

This is one part of the list.

The test system of this experiment is PfHDP1 homeodomain (GST-tagged). Briefly: gcPBM binding intensity (ln(normalized median fluorescence intensity)); higher = stronger DNA binding. The procedure, abridged: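 Each value is the highest Masliner-normalised natural-log median intensity across replicate spots of either orientation of a probe. The probes were primer-extended double-stranded 36-bp intergenic genomic sequences on an Agilent 4 × 180k array, alongside negative controls, exposed for 1 h to GST-tagged P. falciparum DNA-binding domains expressed in E. coli. Bound protein was picked up with Alexa488 anti-GST antibody and scanned at 488 nm.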
For “CACCCATAGAAACACACACACGCATAAAAAAAAAAA [CACACA_site1513]”, the “gcPBM binding intensity (ln)” value was found to be 6.54.
For “TAAAAACAAAAATGCACACATAATAAGCATATGTAT [CACACA_site3469]” the value was 9.59.
For “TTTTTTTTTTTATATACTGGAAATATATTTAATTTA [GTGCAC_negctrl_site250]” the value was 6.47; for “TACAAAATAGTTTACACACACATATATATACATATA [CACACA_site2615]”, 6.59; for “TTTATTTTTATGGTCACACATATTTTTAAAACTATA [CACACA_site4372]”, 6.48.
For “TATTCTAATATTTATACACACATAACTTTGATAAAT [CACACA_site6418]” the value was 6.53; for “TATATATAGCATATTTCACACACACCGAATGAATAT [CACACA_site9182]”, 6.7; for “TTTCTTGGGAGACATGCATGTACCAGAACAAAATAA [TGCATGCA_site272]”, 6.8.
Take “ATTAATTATTGTAATTGTACATTTTATATATATCCA [XGTACX_site2105]”: the “gcPBM binding intensity (ln)” value turned out to be 6.6.
The figure for “TAACTTGAATGGATATGTACATATATATATATATAT [XGTACX_site5990]” is 9.31.
In the case of “AATAAACATATATACACACACAAAAAAAAAAACATA [CACACA_site424]”, the “gcPBM binding intensity (ln)” value was 6.86.
As for “TAGATGTATGTACATACACACATATATAAATAAATA [CACACA_site1788]”, the “gcPBM binding intensity (ln)” value is 6.51.
The figure for “ATTCATCTATTTTGTAGTACTAAATATATATCTACT [XGTACX_site8790]” is 6.76; for “TATATAAATAGACACACACACATATAAATATAAATA [CACACA_site6503]” it is 6.87; for “TACCTAGGATTAAAGTGTCCACATAATTTAAATAAT [XGTACX_site6736]” it is 6.55.
For “TTCTTCTGTTTTATTACACACCATTTTGTGGATACA [CACACA_site5181]” the value was 7.04; for “TTTTTTATTATATAATTGTATATAAAATTATAATTT [GTGCAC_negctrl_site733]”, 6.54.
The figure for “TTTTTTTAATTTGGTTGTACTTAAAAAAAAAACAGA [XGTACX_site5788]” is 6.58; for “GCGAAATATTATTATAGTATACAAATACTTCTATGA [CACACA_negctrl_site197]” it is 6.21.
Take “GGTAAGTACGACTTGACACACATACCCATATATATA [CACACA_site4837]”: the “gcPBM binding intensity (ln)” value stood at 6.47.
For “ACAGTATCTGGTAGCTGTACGAGTCGTAGAGTGCAG [XGTACX_site2015]” the value was 6.8; for “GGTGTTAAAAAATACACACACAAAAAAAAAAAAAAA [CACACA_site138]”, 6.13.
The figure for “ATATGCCTAATAAAATGTACGTTTGTTTTATTTATT [XGTACX_site3833]” is 6.49.
For the sequence “ATTATTTTACTAAAAGATATTCCTTTTTTTTGTACT [CACACA_negctrl_site998]”, the “gcPBM binding intensity (ln)” value turned out to be 6.2.
For “ATATGGCTAAAAGTTGCACACACACTAATAAAAAAA [CACACA_site9082]” the value was 9.15; for “TATGTATTTATATTAACACACAAAAAAAAAAAAAAA [CACACA_site5070]”, 6.12.
The figure for “GAATGTATATTCATGTATTTATTATTATTATTATTA [XGTACX_negctrl_site156]” is 6.68; for “TATAACAAGTTATAAAGTACAAATGTTGAATTTTAT [XGTACX_site4673]” it is 6.07.
For “TCGGGAGGGGGGAAGCGTACATATATAAAATTATTA [XGTACX_site4683]”, the “gcPBM binding intensity (ln)” value was determined as 8.42.
For “TAAAAATTAATATAAACACACAAAAATTAATAAATA [CACACA_site381]” the value was 6.42; for “TATAGATACAGATACACACACACACCGACATATATA [CACACA_site5832]”, 6.77.
The figure for “AAAAAACACAGACATACACACAAAAAGGTTATAAAT [CACACA_site4222]” is 6.79; for “AGAAAAAAAAAAAATGCACACATTTTCATTGTCAGT [CACACA_site1935]” it is 9.32.
In the case of “ATATATATATATATGTGTACATATTTTTTTTTTTTT [XGTACX_site3425]”, the “gcPBM binding intensity (ln)” value was 9.31.
The figure for “CCTTTTTTATTTACAACACACGTAAAGGTTCAAATA [CACACA_site1741]” is 6.8.
As for “GTAAATATTAATAAAAGTACATATGTAGCATATGGA [XGTACX_site5219]”, the “gcPBM binding intensity (ln)” value stood at 6.93.
Take “TATAAAGCAACTGAAACACACAAATTTTTTTTTTTT [CACACA_site3218]”: the “gcPBM binding intensity (ln)” value came to 6.13.
For ATTATTTATTTATGTGTGCGCATGTGTGTAAATATT, the “gcPBM binding intensity (ln)” value worked out at 8.19.
The figure for “ACTATTTTCTTCAAAACATGCACCACATAAACATAA [TGCATGCA_site200]” is 9.43; for “TTAAACATATATTAAGCACACACAAACAAAAAAACA [CACACA_site8816]” it is 7.1; for “TAATTAATCGATTTACGCACATGAACAAAAGCACAT [CACACA_negctrl_site1287]” it is 7.16.
In the case of “TATACCAAATATATGGGTACACAAATATGTTTATTC [XGTACX_site8932]”, the “gcPBM binding intensity (ln)” value came to 6.38.
For the sequence “AACATATTTTTTTGTTGTACTTACAATTATAAGCAT [XGTACX_site3056]”, the “gcPBM binding intensity (ln)” value is 6.35.
Consider “TATTATAAAATATACACATGCAAAAACAAAATTTAC [TGCATGCA_site1051]”, for which the “gcPBM binding intensity (ln)” value came to 7.03.
